Laboratory results reported in the supplement of paper PMC12217912.
This is one part of the list. Sequences were assembled here from the parent chain. Inactive controls read about 0.05.

B1: TEV protease; numbered along this chain (parent)
chain: MGESLFKGPRDYNPISSSICHLTNESDGHTTSLYGIGFGPFIITNKHLFRRNNGTLVVQSLHGVFKVKDTTTLQQHLVDGRDMIIIRMPKDFPPFPQKLKFREPQREERICLVTTNFQTKSMSSMVSDTSCTFPSGDGIFWKHWIQTKDGQCGSPLVSTRDGFIVGIHSASNFTNTNNYFTSVPKNFMELLTNQEAQQWVSGWRLNADSVLWGGHKVFMVKPEEPFQPVKEATQL

Variants of: B1
Test: raw area under fraction-flipped curve 0-4 h after induction (AUC4h, not background-subtracted), DNA-recorder readout of cleavage of the substrate (dimensionless); higher = more cleavage of the substrate by the protease variant
Conditions: temperature: 34 °C; time window: 0-4 h after rhamnose induction
Method: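 In vivo DNA recorder in E. coli TOP10(DE3) ΔrhaA at 34 °C. Each TEVp single-site mutant (parent TEVp 0) is paired with a single-site variant of the 7-mer TEVs (canonical ENLYFQ|S). The substrate sits between flexible linkers in a Bxb1-sfGFP-TEVs-SsrA fusion, so cleavage stabilises Bxb1 and speeds flipping of a recombination array, read by NGS. The value is the raw area under the fraction-flipped curve over 0-4 h after rhamnose induction (AUC4h), with ≥20 reads per time point. It is not background-subtracted; inactive controls average about 0.047.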
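Note: Bxb1 expression induced with 0.2% (w/v) L-rhamnose at OD600 near 0.5, cultures sampled hourly, flipped fraction per protease–substrate barcode pair counted by paired-end Illumina sequencing.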

Row | Variant | area with substrate ENAYFQS | area with substrate ENCYFQS | area with substrate ENDYFQS | area with substrate ENEYFQS | area with substrate ENFYFQS | area with substrate ENGYFQS | area with substrate ENIYFQS | area with substrate ENMYFQS | area with substrate ENPYFQS | area with substrate ENQYFQS | area with substrate ENVYFQS | area with substrate ENWYFQS | area with substrate ENKYFQS | area with substrate ENNYFQS | area with substrate ENRYFQS | area with substrate ENTYFQS | area with substrate ENSYFQS | area with substrate ENYYFQS | area with substrate ENHYFQS
1 | E189C | 0.0649 | 0.079 | 0.069 | 0.0593 | 0.0592 | 0.0701 | 0.0999 | 0.0628 | 0.0583 | 0.0601 | 0.051 | 0.0598 |  |  |  |  |  |  | 
2 | Y179R | 0.0759 | 0.0757 | 0.0359 | 0.0608 | 0.0869 |  | 0.0625 |  | 0.0641 | 0.0562 | 0.047 | 0.0076 | 0.0569 | 0.0723 | 0.0624 |  |  |  | 
3 | Y179A | 0.0414 |  | 0.059 | 0.0652 | 0.0535 | 0.0647 |  |  |  | 0.0639 | 0.0652 | 0.0384 | 0.078 |  | 0.0475 | 0.0568 |  |  | 
4 | Y179S | 0.0782 |  |  | 0.0595 | 0.0616 | 0.0677 |  | 0.0548 |  | 0.0584 | 0.0403 |  | 0.0561 | 0.0552 | 0.0855 | 0.0608 | 0.0252 | 0.0628 | 
5 | S182R | 0.0562 | 0.0526 | 0.0699 | 0.0552 | 0.0307 |  |  | 0.0528 |  | 0.0552 |  |  | 0.0513 |  | 0.0629 | 0.0557 | 0.0582 | 0.0791 | 
6 | R160W | 0.0598 |  | 0.1 |  |  |  |  |  |  | 0.0779 |  |  |  |  | 0.072 |  | 0.0833 |  | 
7 | S171H | 0.0792 | 0.0736 | 0.0621 | 0.0629 | 0.0684 |  | 0.0631 | 0.0733 | 0.0134 | 0.0638 | 0.0418 |  |  | 0.0647 | 0.0551 | 0.0714 | 0.0663 |  | 0.0671
8 | S171C | 0.0708 | 0.0538 | 0.0651 | 0.0572 | 0.0582 |  |  | 0.0765 |  | 0.061 | 0.0564 | 0.0572 |  | 0.0742 | 0.0661 | 0.0659 | 0.0592 |  | 0.061
9 | T159I | 0.0663 |  | 0.0642 | 0.0609 | 0.0574 | 0.0689 |  | 0.0808 | 0.0511 | 0.0641 | 0.0774 |  |  | 0.0763 |  | 0.0253 | 0.0744 |  | 0.0465
10 | N177C | 0.0633 | 0.0532 | 0.06 |  |  | 0.0601 |  |  |  | 0.0649 | 0.103 | 0.0057 |  |  | 0.0536 |  | 0.0623 |  | 0.065
11 | N177P | 0.0535 | 0.0693 | 0.0641 | 0.05 | 0.0651 | 0.0606 | 0.0556 |  |  | 0.0619 | 0.0534 | 0.0581 |  | 0.0607 | 0.0601 | 0.0679 | 0.0603 |  | 0.0596
12 | N177I | 0.0677 | 0.0848 |  | 0.0695 | 0.0715 | 0.063 |  |  |  | 0.0634 |  | 0.0531 |  |  | 0.0755 | 0.0645 | 0.0599 |  | 
13 | I167V | 0.0641 |  | 0.0595 | 0.0523 | 0.0468 | 0.0434 |  |  | 0.0421 | 0.0631 |  |  | 0.042 |  | 0.0258 |  | 0.0516 |  | 
14 | I167R | 0.0364 | 0.0538 |  | 0.0512 |  | 0.0608 |  |  | 0.0398 | 0.0526 | 0.0478 | 0 | 0.0441 | 0.0307 | 0.0384 | 0.0485 | 0.0565 | 0.0296 | 0.058
15 | G162R | 0.0656 | 0.0495 | 0.0532 | 0.0851 |  |  | 0.083 | 0.0729 | 0.0631 | 0.0691 | 0.0745 |  |  |  | 0.056 | 0.0669 | 0.0562 | 0.0517 | 0.0525
16 | G162L | 0.0564 | 0.0508 | 0.0713 |  | 0.0512 | 0.0641 |  |  |  | 0.059 | 0.0621 |  |  |  |  | 0.0673 | 0.0562 |  | 0.0505
17 | G162F | 0.0479 | 0.0535 | 0.0761 | 0.0588 | 0.0607 | 0.0624 |  | 0.06 | 0.0714 |  | 0.0676 | 0.0586 |  | 0.0618 |  | 0.0395 | 0.0608 | 0.066 | 0.0485
18 | G162D | 0.08 |  | 0.058 | 0.0623 |  | 0.0687 | 0.0926 |  |  | 0.059 | 0.0662 |  |  |  | 0.043 | 0.0496 | 0.0588 |  | 
19 | S169I | 0.051 | 0.0453 | 0.0592 | 0.065 | 0.0538 |  | 0.059 | 0.0669 | 0.0692 |  | 0.051 | 0.0667 | 0.0515 | 0.0532 | 0.0617 | 0.0613 | 0.0434 | 0.0262 | 
20 | S169D | 0.0557 |  | 0.0704 | 0.0568 |  | 0.0728 | 0.057 | 0.0381 | 0.0782 | 0.0564 | 0.0572 | 0.0473 |  |  | 0.0611 | 0.0631 | 0.0488 | 0.0417 | 0.0646
21 | I164Q | 0.0536 | 0.0603 | 0.0613 | 0.0549 | 0.051 | 0.0548 | 0.0361 | 0.0429 |  | 0.0452 |  | 0.0166 | 0.0473 | 0.0528 | 0.046 | 0.0486 | 0.0502 | 0.0284 | 0.0612
22 | I164G | 0.0548 | 0.0607 |  |  |  | 0.0681 |  | 0.0579 | 0.0496 | 0.0603 | 0.0624 |  | 0.0593 |  | 0.0528 | 0.0404 | 0.0399 |  | 0.0618
23 | A170T | 0.0666 |  | 0.0685 | 0.055 |  |  |  |  |  |  |  |  | 0.0725 |  |  |  | 0.0694 |  | 
24 | K185C | 0.0631 | 0.0582 | 0.0603 | 0.0615 |  | 0.0683 | 0.105 |  | 0.0596 | 0.0752 | 0.0931 | 0.0364 |  | 0.0661 | 0.0509 | 0.0789 | 0.0356 | 0.0436 | 0.0625
25 | K185S | 0.0561 |  | 0.0717 |  | 0.0288 | 0.0649 |  | 0.0822 |  |  | 0.0806 |  |  |  |  | 0.0536 |  |  | 0.0519
26 | K185M | 0.0535 | 0.0639 | 0.0598 | 0.0586 | 0.0652 |  | 0.122 |  | 0.0434 | 0.0603 | 0.0874 | 0.0477 | 0.0594 | 0.0498 | 0.0479 |  | 0.106 | 0.0508 | 0.0619
27 | V157W | 0.0557 | 0.0514 | 0.0521 | 0.052 | 0.0626 | 0.0541 |  | 0.0421 |  | 0.0516 |  | 0.0433 |  | 0.058 |  | 0.0521 | 0.0627 | 0.0626 | 0.0257
28 | Q146P | 0.0822 | 0.0575 | 0.0966 | 0.0578 | 0.0566 | 0.0695 |  |  | 0.0651 | 0.0578 |  | 0.0603 |  |  | 0.0591 | 0.0631 |  | 0.0589 | 
